From US20230272050A1, “BINDING PROTEIN SPECIFIC FOR THE SPIKE PROTEIN OF SEVERE ACUTE RESPIRATORY SYNDROME CORONA VIRUS 2 (SARS-COV-2)” (priority 2020, published 2023)

B1: 212361 (protein)
chain: IAAKFDEAQQYAFYKILHLWNLTEEQRNAFIQSLRDDPSVSLEVLGEARKLNTSQAPKIAAKFDEAQYAAFLEIVHLPNLTEEQRQAFIASLWDDPSVSLEVLGEAQKLNDSQAPK
B2: 212335 (protein)
chain: IAAKFDEAQQYAFYKILHLWNLTEEQRNAFIQSLRDDPSVSLEVLGEARKLNTSQAPKIAAKFDEAQYAAFLEIHHLPNLTEEQRHAFILSLYDDPSVSLEVLGEAQKLNDSQAPK
B3: 213147 (protein)
chain: AKFDEAQQWAFYEILHLENLTEEQRNAFIQSLRDDPSVSREVLGEATKLNTSQAPKIAAKFDEAQLAAFQEIRHLPNLTEEQREAFITSLYDDPSVSLEVLGEAQKLNDSQAPKIAAQHDKIQQAADKEILHLPNLTEEQRNKFRQSLRDDPSVSAEILAEAKKLNDAQAPKIAAQHDKIQQAADKEILHLPNLTEEQRNKFRQSLRDDPSVSAEILAEAKKLNDAQAPK
B4: 213152 (protein)
chain: AKFDEAQLAAFEEIRHLPNLTEEQREAFITSLYDDPSVSLEVLGEAQKLNDSQAPKIAAKFDEAQQAAFYEILHLPNPTEWQRNYFIQQLRDDPSVSLAVLGRAQVLNDSQAPKIAAQHDKIQQAADKEILHLPNLTEEQRNKFRQSLRDDPSVSAEILAEAKKLNDAQAPKIAAQHDKIQQAADKEILHLPNLTEEQRNKFRQSLRDDPSVSAEILAEAKKLNDAQAPK
B5: 212895 (protein)
chain: AVLDIAQHSATEEIWWLPNLTKQQKVWFIMSLTQDPSVSKEVLGEAQKLNDSQAPKIAAQHDKIQQAADKEILHLPNLTEEQRNKFRQSLRDDPSVSAEILAEAKKLNDAQAPKIAAQHDKIQQAADKEILHLPNLTEEQRNKFRQSLRDDPSVSAEILAEAKKLNDAQAPKIAAQHDKIQQAADKEILHLPNLTEEQRNKFRQSLRDDPSVSAEILAEAKKLNDAQAPKC
B6: 212896 (protein)
chain: AVLDIDQHAATEEIWWLPNLTKQQKVWFIMSLTQDPSVSLEILAEAKKLNDAQAPKIAAQHDKIQQAADKEILHLPNLTEEQRNKFRQSLRDDPSVSAEILAEAKKLNDAQAPKIAAQHDKIQQAADKEILHLPNLTEEQRNKFRQSLRDDPSVSAEILAEAKKLNDAQAPKIAAQHDKIQQAADKEILHLPNLTEEQRNKFRQSLRDDPSVSAEILAEAKKLNDAQAPKC

Legend:
[1] = target: SARS-Cov2-RBD-His (Severe acute respiratory syndrome coronavirus 2)
[2] = target: S1-His and ACE2 (Severe acute respiratory syndrome coronavirus 2); details: equimolar mixture incubated 1 h at RT
[3] = target: RBD-His and ACE2 (Severe acute respiratory syndrome coronavirus 2); details: equimolar mixture incubated 1 h at RT
[4] = system: SARS-CoV2-RBD (Severe acute respiratory syndrome coronavirus 2)
[5] = system: RBD (Severe acute respiratory syndrome coronavirus 2); details: 0.1 M NaOH for at least 10 h at RT (equals 40 CIP cycles), coupled to Praesto Epoxy 85

| Molecule | Elution pH at main fraction [1] [pH] | peak maximum in a pH gradient profile [1] [pH] | purity of eluted RBD-His target, qualitative [1] | captured RBD eluted at pH 3.4 [1] [%] | competitive binding, S1 and ACE2 applied at the same time [2] | competitive binding, RBD and ACE2 applied at the same time [3] | purity of the eluted fraction [4] | remaining RBD binding capacity [5] [%] |
| --- | --- | --- | --- | --- | --- | --- | --- | --- |
| B1 | >6.0 |  |  |  |  |  |  |  |
| B2 | >6.0 |  |  |  |  |  |  |  |
| B3 | 4.62 | ~4.3 | high purity |  |  |  |  |  |
| B4 | 4.19 | ~3.9 | high purity |  |  |  |  |  |
| B5 | 3.47 | 3.4 |  | 96 |  |  |  |  |
| B6 | 3.4 | 3.4 |  | 96 | binds to the same or an overlapping epitope | binds to the same or an overlapping epitope | at least 94% | 87 |
